Screen size: about 48,000 compounds; about 450 (0.94%) were called active. Not shown: some 19% with an inconclusive outcome. Calls come from the whole dose curve; as a rule, active = well fitted inhibition curve with a large enough effect; inconclusive = small, poorly fitted or top-dose-only effect; inactive = no such curve, though single readings can be large or run the other way. This is one part of the list.
experiment: Primary qHTS for Identification of Small Molecule Inhibitors of Huntingtin Promoter Activity; details: HEK293 HTT promoter firefly luciferase reporter (activity 0% = vehicle and -100% = no light), 24 h; series mostly up to 57.5 µM; activity change, negative = inhibition: at the top concentration; note: nearly all actives have a fitted effect of over 50% in size
Outline: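 Firefly luciferase signal from promoter-reporter HEK293 cells was scaled between vehicle (0%) and zero RLU (-100%). Compounds were tested at final concentrations of up to 57.5 uM over 24 h at 37 degrees C. PTC124 at 50 uM final served as control inhibitor.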
Potency is the fitted concentration of half-maximal effect.

Activity change, negative = inhibition, inactive:
c1ccc(CNc2nc3ccccc3c3nc(-c4ccccc4)nn23)cc1 1.21%
Cn1c(=O)c2nc(SCC(=O)Nc3cc(Cl)ccc3Cl)n(C)c2n(C)c1=O -7.83%
NC(=O)CSc1nc2c(oc3ccccc32)c(=O)n1-c1ccccc1F -18.9%
COc1cccc(CNC(=O)CSc2ccc(-c3sc(-c4ccccc4)nc3C)nn2)c1 -30%
COc1ccc(Cl)cc1NC(=O)N1CCC(CN2CCc3ccccc3C2)CC1 -26.9%
CCOc1ccc(C(=O)NCC(c2ccco2)S(=O)(=O)c2ccc(C)cc2)cc1 (stereo not drawn) -12.5%
CCc1ccc(-n2nc3cc(C)c(NC(=O)c4cc(Cl)ccc4OC)cc3n2)cc1 -9.13%
COc1ccc(NS(=O)(=O)c2cc3[nH]c(=O)c(=O)[nH]c3cc2C)cc1OC -20.2%
Cc1ccc2c(=O)cc(C(=O)Nc3sc4c(c3C(=O)NCc3ccco3)CCC4)oc2c1C 13.2%
COc1ccc(Nc2cc(C(=O)NCCc3ccccc3)c3ccccc3n2)cc1OC -8.06%
CCCN(C(=O)Cn1ncc2c(=O)oc3ccccc3c21)c1cccc(C)c1 -2.94%
Cc1ccc(CNC(=O)Cn2ncc3c(C)n(Cc4ccc(Cl)cc4)c(C)c3c2=O)cc1 -3.04%
CCC(C)NC(=O)Cn1c(=O)n(Cc2ccc(C(=O)NCCCOC)cc2)c(=O)c2ccccc21 (stereo not drawn) -5.69%
Cc1ccc(NC(=O)c2c(N3CCCC3=O)c3cc(C)ccc3n2C)c(C)c1 -16.3%
Cc1ccc(Cl)c2sc(N3CCN(C(=O)C4CC4)CC3)nc12 0%
CC(C)c1ccc(NC(=O)CSc2ncc3c(n2)-c2ccccc2N(C)S3(=O)=O)cc1 -30.5%
CSc1ccc(CNCc2c(C(=O)O)c(C)n(Cc3ccc(F)cc3Cl)c2C)cc1 -18.1%
Cc1ccccc1CNC(=O)c1c(C)oc2c1C1=NCCN1C=N2 9.64%
Cc1ccccc1Cn1cc(S(=O)(=O)c2ccc(Cl)cc2)c(=O)c2cc3c(cc21)OCO3 -8.05%
Cc1c(NC(=O)c2nc3ccccc3n(C)c2=O)cccc1[N+](=O)[O-] 11.1%
O=C1[C@@H]2CSC(c3ccc(F)cc3)N2C(=O)N1c1ccc(Cl)cc1 (stereo partly drawn) -34.6%
CCc1ccc(-n2c(=O)c3c4c(sc3n(Cc3ccc(F)cc3)c2=O)CCCC4)cc1 13.1%
COc1ccc(CNC(=O)c2cccc(N3CCCS3(=O)=O)c2)cc1 -31.6%
O=C(Cn1c(=O)n2nc(-c3ccccc3)nc2c2ccccc21)Nc1ccccc1C(F)(F)F -5.28%
Nc1ncc(S(=O)(=O)NCc2cccc(Cl)c2)cn1 -1.53%
Cc1ccc2oc(=O)c3cnn(CC(=O)NCc4ccccc4Cl)c3c2c1 7.76%
O=C(O)CCC(=O)OC[C@@H](NC(=O)C(Cl)Cl)[C@H](O)c1ccc([N+](=O)[O-])cc1 -4.89%
Cc1ccc(-c2nc(CCNC(=O)C(=O)Nc3ccc(C)c(C)c3)cs2)cc1 -4.09%
COc1ccc2cc(CCC(C)=O)ccc2c1 33.2%
COc1ccc(NC(=O)c2ccc3nc(CCc4ccccc4)oc3c2)cc1 40.5%
CS(=O)(=O)c1ccc2nc(NC(=O)CS(=O)(=O)c3ccc(Cl)cc3)sc2c1 -22.3%
CCOC(=O)CNC(=O)Nc1cc(C(=O)NCc2cccc(F)c2)ccc1N1CCCC1 -6.59%
COc1ccccc1NC(=O)C1CCCN(c2nnc(C)c3c(C)n(-c4ccccc4)nc23)C1 (stereo not drawn) -10.6%
CCCCCC(C)N (stereo not drawn) 8.59%
O=C(NCC(c1cccnc1)N1CCc2ccccc21)c1ccccc1Br (stereo not drawn) -30%
CCCN(CCC)C(=O)Cn1c(=O)n(-c2cccc(C(F)(F)F)c2)c(=O)c2c(C)c(C)sc21 -7.69%
O=C(Cn1c(=O)n(Cc2ccco2)c(=O)c2cccnc21)Nc1ccccc1F -10.3%
O=C(Nc1ccc2nc(SCC(=O)N3CCCC3)sc2c1)c1ccccc1 3.26%
CCOc1cc(C(=O)Nc2ccc(-c3nc4cc(C)ccc4o3)cc2)cc(OCC)c1OCC -6.75%
Cc1ccc(OCC(=O)Nc2c(C(=O)c3ccccc3)oc3ccccc23)cc1C 10.2%
COc1ccc(CNC(=O)Cn2c(SCC(=O)N(C)c3ccccc3)nc3ccccc32)cc1 -3.2%
CCOC(=O)c1noc2nc(C)n(CC(=O)Nc3cc(Cl)ccc3OC)c(=O)c12 -13.8%
COc1cc(C(=O)Nc2ccc3nn(-c4ccc(F)cc4)nc3c2)cc(OC)c1OC 0.682%
CCCCn1c(=O)n(-c2ccc(Br)cc2F)c(=O)c2c3c(sc21)CN(C(C)=O)CC3 -25.9%
Cc1ccc(CNC(=O)C2CCN(S(=O)(=O)N3CCC(C)CC3)CC2)cc1 -4.01%
Oc1c(C(c2ccccc2)N2CCN(Cc3ccccc3)CC2)sc2nc(-c3ccco3)nn12 (stereo not drawn) -32.9%
COc1cc(Cl)c(C)cc1NC(=O)CCc1nc2cccnc2n1-c1ccccc1 -15.1%
CC1=C(C(=O)Nc2ccccc2)C(c2ccccc2)n2nc(-c3ccco3)nc2N1 (stereo not drawn) -11.4%
CC(=O)Nc1nnc(SCc2cc(=O)c3cc(C)ccc3[nH]2)s1 -18.6%
NC(=O)NC1N=C([O][Al])NC1=O (stereo not drawn) 3.6%
COc1ccc(NC(=O)Cn2c(SCc3cccc(Cl)c3)nc3ccncc32)c(OC)c1OC 12.7%
CCOc1ccccc1NC(=O)C(C)Sc1cc(-c2ccccc2)nc(C)n1 (stereo not drawn) -15.2%
CCCCNC(=O)C1CCN(S(=O)(=O)c2cc(Br)cc3c2N(C(=O)CC)CC3)CC1 -6.96%
Cn1c(=O)cc(SCC(=O)NCc2ccc(F)cc2)c2ccc(Cl)cc21 -5.06%
CCn1cc(C(=O)O)c(=O)c2ccc(C)nc21
CCN(CC)CCNC(=O)c1cc(S(C)(=O)=O)ccc1OC 7.06%
CC(=O)c1ccc(NC(=O)C2CCC(CNS(=O)(=O)c3ccc(Br)s3)CC2)cc1 (stereo not drawn) -2.42%
O=C(NC(=O)c1cccc(F)c1)Nc1ccc(-c2cc(C(F)(F)F)nn2-c2ccccc2)cc1 -20.8%
Cc1nc(-c2ccc(C)c(N3CCN(C(=O)Nc4ccccc4C(F)(F)F)CC3)c2)no1 -20.3%
Cc1ccc(C(=O)Nc2nnc(S(=O)(=O)N3CCOCC3)s2)cc1 10.5%
COC(=O)c1ccc(NC(=O)C2(S(=O)(=O)c3ccc(C)cc3)CC2)cc1 12.4%
COC(=O)c1sc(-c2ccccc2)cc1NC(=O)c1cccc(F)c1 13.1%

Potency, active:
Cc1ccc(NCc2cccn2-c2nnc(N3CCCCCC3)s2)cc1 7.94 µM
